± gives the standard deviation of the averaged measurements. The full ranking holds about 33,000 sequences; the median of “E-score (dimensionless, -0.5 to 0.5)” is about -0.046, and the highest 2% start at about 0.36. Some of the results follow.

The experiment has as its system T1, SpTbr T-box DNA-binding domain (GST fusion).
T1 sequence: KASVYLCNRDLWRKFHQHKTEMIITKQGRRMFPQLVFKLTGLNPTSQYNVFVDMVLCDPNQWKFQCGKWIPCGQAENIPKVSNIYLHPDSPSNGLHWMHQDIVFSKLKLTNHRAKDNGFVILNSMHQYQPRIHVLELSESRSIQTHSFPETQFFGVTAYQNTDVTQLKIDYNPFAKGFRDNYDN
Kind of experiment: PBM E-score of 8-mer (E-score (dimensionless, -0.5 to 0.5)); Tbr is Tbrain of the sea star Patiria miniata (Pm) or the sea urchin Strongylocentrotus purpuratus (Sp); higher = stronger binding preference; most listed sequences are background and not binding sites. The settings on record: the construct has about 5 more residues each side. In a few lines: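 GST-fused Tbr T-box DNA-binding domains (the whole T-box plus about five flanking residues) were expressed in BL21 E. coli at 20 °C and purified by glutathione affinity chromatography. Universal Agilent oligonucleotide arrays were made double-stranded by primer extension, incubated with 200 nM protein in PBS (pH 7.5), then scanned and quantified. Every ungapped 8-mer was scored from probe intensities. The Universal PBM Analysis Suite gave each word an enrichment E-score, averaged over duplicate arrays.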
On to AGGCGGAG, for which the “PBM E-score of 8-mer” value was -0.199 ± 0.01.

As to AGTCGGCA, the “PBM E-score of 8-mer” value worked out at 0.0408 ± 0.12.

As for GCGCAGCC, the “PBM E-score of 8-mer” value was -0.0173 ± 0.027.

ATATAGAT: the “PBM E-score of 8-mer” value is -0.11 ± 0.041.

As to GTCGTGTA, the “PBM E-score of 8-mer” value is -0.0754 ± 0.07.

Take AACCCACG: the “PBM E-score of 8-mer” value is -0.072 ± 0.023.

Regarding AATCCACA, the “PBM E-score of 8-mer” value worked out at 0.169 ± 0.0031.

In the case of CCGTCAAC, the “PBM E-score of 8-mer” value amounted to 0.24 ± 0.021.

As for AGGTTGGG, the “PBM E-score of 8-mer” value was -0.271 ± 0.012.

CACCCCAG: the “PBM E-score of 8-mer” value is 0.167 ± 0.02.

As for TCACCCCA, the “PBM E-score of 8-mer” value amounted to 0.166 ± 0.0061.

Consider AATATCCA, for which the “PBM E-score of 8-mer” value is -0.0696 ± 0.057.

For the sequence AGTATGAC, the “PBM E-score of 8-mer” value is 0.0489 ± 0.035.

As for AAAATGTG, the “PBM E-score of 8-mer” value came out at 0.253 ± 0.041.

For CCGTGATA, the “PBM E-score of 8-mer” value worked out at 0.0742 ± 0.019.

Consider GAGTGGAC, for which the “PBM E-score of 8-mer” value was -0.0772 ± 0.041.

GCGATGAC: the “PBM E-score of 8-mer” value is 0.172 ± 0.02.

For ATAGCTGA, the “PBM E-score of 8-mer” value was -0.0564 ± 0.04.

Regarding GATTTCCA, the “PBM E-score of 8-mer” value was found to be 0.146 ± 0.051.

Turning to AAACCAGG, the “PBM E-score of 8-mer” value was -0.0282 ± 0.041.

For the sequence ACCCTCAC, the “PBM E-score of 8-mer” value was found to be 0.155 ± 0.084.

Take GGAAGATA: the “PBM E-score of 8-mer” value is -0.267 ± 0.024.

Take CGCACCTC: the “PBM E-score of 8-mer” value stood at 0.453 ± 0.016.

With AAGCTAGA, the “PBM E-score of 8-mer” value is -0.186 ± 0.021.

Regarding CAGTTGCA, the “PBM E-score of 8-mer” value stood at 0.112 ± 0.033.

In the case of CATGTTAC, the “PBM E-score of 8-mer” value was -0.141 ± 0.018.

GTAGCAAA: the “PBM E-score of 8-mer” value is 0.0279 ± 0.094.

Turning to TAGCGTCA, the “PBM E-score of 8-mer” value was 0.21 ± 0.013.

As to CCATAGCC, the “PBM E-score of 8-mer” value was -0.16 ± 0.028.

On to CAGCCCCG, for which the “PBM E-score of 8-mer” value is -0.281 ± 0.039.

Consider CCGGCCGA, for which the “PBM E-score of 8-mer” value was -0.183 ± 0.014.

Take CACTCTTC: the “PBM E-score of 8-mer” value amounted to 0.192 ± 0.046.

On to ATCGGCAT, for which the “PBM E-score of 8-mer” value is -0.154 ± 0.045.

For GTTAATGA, the “PBM E-score of 8-mer” value was -0.00365 ± 0.018.

For the sequence CGACAGCC, the “PBM E-score of 8-mer” value was 0.105 ± 0.026.

With AAGACATC, the “PBM E-score of 8-mer” value is -0.0616 ± 0.014.

Consider CACGCAGG, for which the “PBM E-score of 8-mer” value worked out at 0.155 ± 0.013.

As for ATGATTTC, the “PBM E-score of 8-mer” value was determined as 0.0105 ± 0.063.

For ATCCTGGA, the “PBM E-score of 8-mer” value was determined as 0.0696 ± 0.045.

Regarding GGTCCATA, the “PBM E-score of 8-mer” value was -0.372 ± 0.027.

Consider GTGAAACA, for which the “PBM E-score of 8-mer” value was 0.224 ± 0.0064.

Take CCCCCAGG: the “PBM E-score of 8-mer” value is -0.215 ± 0.018.

In the case of CGTAAAAC, the “PBM E-score of 8-mer” value was -0.0886 ± 0.059.

Take CGACATTA: the “PBM E-score of 8-mer” value was 0.0694 ± 0.045.

Consider GTAGCCTA, for which the “PBM E-score of 8-mer” value is -0.0225 ± 0.059.

As to GTAGCGAC, the “PBM E-score of 8-mer” value was 0.163 ± 0.005.

As for GCATTGAA, the “PBM E-score of 8-mer” value was -0.203 ± 0.0013.

With AGCCAGAC, the “PBM E-score of 8-mer” value was -0.2804 ± 0.0019.

For the sequence GGCCTAGA, the “PBM E-score of 8-mer” value is -0.307 ± 0.012.

In the case of AGGTAGTC, the “PBM E-score of 8-mer” value is -0.212 ± 0.049.

As for ACTCTGAC, the “PBM E-score of 8-mer” value came to 0.074 ± 0.054.

With ACTCATCG, the “PBM E-score of 8-mer” value turned out to be 0.0714 ± 0.043.

With GACAGGAC, the “PBM E-score of 8-mer” value is -0.0935 ± 0.012.

Consider CGTGTCCC, for which the “PBM E-score of 8-mer” value was -0.028 ± 0.1.

Regarding GGCCAGGA, the “PBM E-score of 8-mer” value is -0.19 ± 0.028.

Turning to CATCTTTC, the “PBM E-score of 8-mer” value was 0.0605 ± 0.011.

As for ACACCCAT, the “PBM E-score of 8-mer” value is 0.282 ± 0.0078.

GCTAACGA: the “PBM E-score of 8-mer” value turned out to be 0.3 ± 0.0067.

Consider AACTTACA, for which the “PBM E-score of 8-mer” value turned out to be 0.0779 ± 0.081.

Take CATAAATG: the “PBM E-score of 8-mer” value was 0.0176 ± 0.0079.

As to AAATGTCC, the “PBM E-score of 8-mer” value was -0.193 ± 0.051.

In the case of AAATTCCC, the “PBM E-score of 8-mer” value is -0.179 ± 0.013.

Turning to AATGGCGT, the “PBM E-score of 8-mer” value stood at 0.192 ± 0.0042.

For GCGCTACA, the “PBM E-score of 8-mer” value turned out to be 0.0622 ± 0.027.

Take GGGGGATA: the “PBM E-score of 8-mer” value was 0.00562 ± 0.00082.

Take AAGTAAGA: the “PBM E-score of 8-mer” value is -0.106 ± 0.13.

Take AAGGCACG: the “PBM E-score of 8-mer” value is -0.0491 ± 0.016.

(Values after the supplement of paper PMC4166925.)
